The test deals with Drosophila virilis. As to the kind of experiment: attraction index (odor vs solvent trap) (index (-1 to 1)); higher = more attraction to the odorant. Conditions: odor dose: 10^-2 dilution in mineral oil. On the procedure: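 Two-choice trap assay (odor 10^-2 in mineral oil vs solvent, 20 flies, 24 h) run at test temperatures of 10-35 °C and 70% humidity, with flies reared at 18 or 25 °C. Attraction index = (O-C)/n; 10 replicates.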

Setting [1] is: test temperature 15 °C, rearing temperature 18 °C.
Setting [2] is: test temperature 15 °C, rearing temperature 25 °C.
Where [3] appears, read: test temperature 20 °C, rearing temperature 18 °C.
[4] abbreviates: test temperature 20 °C, rearing temperature 25 °C.
[5] abbreviates: test temperature 25 °C, rearing temperature 18 °C.
Setting [6] is: test temperature 25 °C, rearing temperature 25 °C.
Where [7] appears, read: test temperature 30 °C, rearing temperature 18 °C.
The mark [8] stands for this setting: test temperature 30 °C, rearing temperature 25 °C.

Consider three compounds from the supplement of paper PMC10477191.

± gives the standard deviation of the averaged measurements. Some of the results follow.

Consider `COC(=O)c1ccccc1O` [methyl salicylate], for which the attraction index reads like this: under setting [1], -0.039 ± 0.51; under setting [2], -0.203 ± 0.41; under setting [3], 0.0144 ± 0.42; under setting [4], 0.0178 ± 0.38; under setting [5], -0.0474 ± 0.18; under setting [6], 0.229 ± 0.36. Besides, the attraction index runs as follows: under setting [7], 0.0526 ± 0.44; under setting [8], 0.139 ± 0.37.
Consider `CC(C)OC(=O)c1ccccc1` [isopropyl benzoate], for which the attraction index reads like this: under setting [1], -0.153 ± 0.58; under setting [3], -0.0903 ± 0.3; under setting [5], -0.205 ± 0.33; under setting [7], 0.0101 ± 0.29.
Regarding `COc1ccccc1O` [guaiacol], the attraction index is, setting by setting: under setting [1], -0.474 ± 0.37; under setting [2], -0.695 ± 0.22; under setting [3], -0.311 ± 0.43; under setting [4], -0.183 ± 0.47; under setting [5], -0.622 ± 0.29; under setting [6], -0.622 ± 0.22. Also, the attraction index is, setting by setting: under setting [7], -0.427 ± 0.31; under setting [8], -0.677 ± 0.3.
